From PubChem BioAssay AID463173 (ICCB-Longwood Screening Facility, Harvard Medical School, 2010) come the findings set out here.

The structures appear in SMILES notation. The campaign covered roughly 52,000 compounds. About 4,300 (8.3%) were called active. Rule as the data show it: active = survival mostly below about 52% (no sharp cut-off); inactive = mostly above about 56%. This is one part of the list.

For this experiment, the system named is DeltatarO mutant. Put plainly: S. aureus survival, RN4220 and DeltatarO strains – OD600, teichoic acid synthesis inhibitors, primary screen (AID 463173). Particulars: S. aureus RN4220 wild type/DeltatarO growth, OD600, 18 h, stronger effect = lower value, screened at 18.75 µg/mL (by protocol).
As for `CCCC12CN3CC(C)(CN(C1)C3c1ccc(OCc3ccccc3)cc1)C2=O` (stereo unspecified), the survival is inactive: 80%. In the case of `Cc1cccc(CNC(=O)CN2C(=O)CCn3nc(-c4cn(C)c5ccccc45)cc32)c1`, the survival is inactive: 119%. Take `COc1ccc2c(c1)CCc1c(C(=O)Nc3ccc(OC)cc3OC)noc1-2`: the survival was inactive: 180%.

For the molecule `COc1ccccc1NC(=O)c1sc2nc3n(c(=O)c2c1C)N=C(c1cccc(Br)c1)CS3`, the survival was inactive: 80%.

Turning to `Cn1c(C(=O)OCC(=O)NCc2cccs2)cc2sccc21`, the survival was inactive: 102%. On to `COc1ccc(Cn2c(C(=O)O)c(CNC3CCCCC3)c3ccc(C)cc32)cc1`, for which the survival is inactive: 84%. For `COC(=O)c1ccc2c(c1)N(Cc1ccccc1)C(=O)c1ccccc1S2(=O)=O`, the survival is inactive: 86%. For the molecule `CCc1ccc(-n2c(SCC(=O)NCC(C)C)nnc2-c2ccncc2)cc1`, the survival was inactive: 96%. Take `Cc1nc(S(=O)(=O)N2CCN(c3ccccc3F)CC2)cn1C`: the survival was inactive: 117%. `CC(=O)c1cc(-c2ccc(F)cc2)n(CCC(=O)Nc2nc3ccc(C)cc3s2)c1C`: the survival is inactive: 69%. For the molecule `CC(C)OC(=O)Cn1c(C2CC2)nc2ccccc2c1=O`, the survival was inactive: 106%. For `COc1ccc(-c2nc3cc(NC(=O)c4ccc(C)cc4)ccc3o2)cc1Cl` the value was inactive: 76%; for `CCOc1ccc(Br)cc1C1NC(=O)c2c(sc3c2CCN(C)C3)N1` (stereo unspecified), inactive: 60%. Regarding `Cc1ccc(C(=O)N2CCC(C)CC2)cc1NC(=O)c1nsc2ccccc12`, the survival was inactive: 96%. With `O=C(OCc1cc(=O)n2nc(C3CC3)sc2n1)c1ccc(NC(=O)c2ccccc2F)cc1`, the survival was inactive: 84%. Consider `CCN(c1ccccc1)S(=O)(=O)c1ccc(NC(=O)c2nc(SC(C)C)ncc2Cl)cc1`, for which the survival was active: 44%.

Take `CCOC(=O)c1cnc2ccc(OCC)cc2c1Nc1ccc(OCc2ccccc2Cl)cc1`: the survival was active: 9%. In the case of `Cc1cccc(CNC(=O)CN2C(=O)CSc3c2c(C)nn3-c2ccccc2)c1`, the survival was inactive: 89%. The same measure for `COc1cc(C(CC(=O)Nc2ncccc2C)N2Cc3ccccc3C2=O)cc(OC)c1OC` (stereo unspecified): inactive: 79%; for `CCOc1ccc(NC(=O)CSc2oc(-c3ccc(C)cc3)nc2S(=O)(=O)c2ccc(C)cc2)cc1`: inactive: 127%. The same measure for `COc1ccc(-c2cc(C(F)(F)F)nc(NCc3ccc(F)cc3)n2)cc1`: active: 1%; for `Cc1ccc(O)c(-c2n[nH]c3c2C(c2ccc(F)cc2)N(Cc2ccco2)C3=O)c1` (stereo unspecified): active: 2%; for `O=C(COCc1cc(-c2cccs2)on1)Nc1cc(C(F)(F)F)ccc1Cl`: inactive: 92%. As for `CC(C)OCCCNC(=O)CCCN1C(=O)CCn2nc(-c3cccn3C)cc21`, the survival is inactive: 119%. Turning to `CC1CCN(S(=O)(=O)c2ccc3nc(N4CCN(c5ccc(F)cc5)CC4)ccc3c2)CC1`, the survival was inactive: 88%. For `CCCC(=O)N1CCN(c2ccc(NC(=O)c3ccco3)cc2Cl)CC1`, the survival was inactive: 95%.

Turning to `COCCCn1c(=N)c(C(=O)NC2CCCCC2)cc2c(=O)n3cc(C)ccc3nc21`, the survival was inactive: 65%. On to `Cc1ccc(S(=O)(=O)c2cc3cc(C(=O)Nc4ccc(C)cc4C)ccc3oc2=O)cc1`, for which the survival is inactive: 89%. The same measure for `CC1CCCCN1CCCNC(=O)Cn1ncc2c3ccccc3n(C)c2c1=O` (stereo unspecified): inactive: 96%; for `Cc1ccc(NC(=O)c2cc(S(=O)(=O)N3CCCCC3)c[nH]2)cc1F`: inactive: 81%; for `Cc1nn(-c2ccccc2)c2sc(C(=O)Nc3cccc(Br)c3)cc12`: active: 30%. The same measure for `Cc1nc2ncnn2c(C)c1CCC(=O)NCc1cccc(Cl)c1`: inactive: 89%; for `COc1ccc(C2C=C(c3ccccc3)Nc3nc(NC(=O)/C=C/c4ccc(Cl)cc4)nn32)cc1` (stereo unspecified): inactive: 53%. Regarding `CCOc1ccc(N2CC(c3nc4ccccc4n3CCOc3ccccc3)CC2=O)cc1` (stereo unspecified), the survival is active: 33%. In the case of `CC(C)(C)c1cc(CN)c(C(=O)O)o1`, the survival is inactive: 88%. For `O=C(CN1CCN(Cc2ccccc2)CC1)N1CCOCC1` the value was inactive: 109%; for `Cc1nc(-c2ccc(F)cc2)sc1CCNC(=O)c1ccc(C(C)(C)C)cc1`, inactive: 77%. On to `Cc1ccc(Cl)cc1NS(=O)(=O)c1ccc(N2CCCCS2(=O)=O)cc1`, for which the survival was inactive: 123%. As for `CC(=O)Nc1cccc(-c2cn3cccnc3n2)c1`, the survival was inactive: 77%.

For `CCOc1ccc(C(=O)c2c(N)c(-c3nc(-c4ccc(OCC)cc4)cs3)c3ccccn23)cc1`, the survival was inactive: 102%. For the molecule `Cc1ccc(C(=O)NCC(c2cccnc2)N2CCc3ccccc3C2)cc1C` (stereo unspecified), the survival is inactive: 61%. For `Cc1ccc(Nc2nc(N)nc(CSc3nccn3C)n2)cc1`, the survival is inactive: 93%. For `Cc1noc(C)c1S(=O)(=O)NCCc1csc2nc(-c3ccc(Cl)cc3)nn12`, the survival was inactive: 96%. Take `O=C(COc1ccc(F)cc1)Nc1ccc(Cl)c(-c2nc3ccccc3[nH]2)c1`: the survival is active: 26%. The same measure for `COc1ccccc1-c1nnc(C2CCN(S(=O)(=O)c3ccc(F)c(C)c3)CC2)o1`: inactive: 76%. Consider `CCOC(=O)N1CCN(C(=O)Cn2ncc3c4ccccc4n(Cc4ccc(F)cc4)c3c2=O)CC1`, for which the survival is inactive: 60%. `Cc1cccc(NC(=O)c2c(C)oc3ncnc(N4CCCCC4)c23)c1C`: the survival is inactive: 122%. With `OCC(O)CN(c1ccccc1)c1ccccc1` (stereo unspecified), the survival was inactive: 64%. The same measure for `CCCCc1nn2c(=O)cc(COC(=O)c3ccccc3NC(=O)c3cccc(C)c3)nc2s1`: inactive: 61%; for `CC(CCC(=O)O)C1CCC2C3C(O)CC4CC(O)CCC4(C)C3CC(O)C12C` (stereo unspecified): inactive: 100%. For `O=C(Oc1cccc(-n2cnnn2)c1)C1CCCCC1` the value was inactive: 94%; for `O=S(=O)(c1ccccc1)c1nc(-c2ccccc2F)oc1N1CCOCC1`, inactive: 71%. Regarding `COc1ccc(-c2cn3c(n2)sc2cc(C(=O)Nc4ccc(C)cc4C)ccc23)cc1`, the survival is inactive: 59%. With `COc1ccc(CCNc2nc3cc(OC)c(OC)cc3c3nc(-c4cccnc4)nn23)cc1OC`, the survival is inactive: 117%.

As to `COc1ccc(OC)c(NC(=O)N2CCN(Cc3nc4ccc(C)cc4o3)CC2)c1`, the survival was inactive: 84%. Consider `COc1cc2ccccc2cc1C(=O)Nc1ccc2oc(-c3cccc(C)c3)nc2c1`, for which the survival is active: 25%. For `CCOc1ccc(NC(=O)CCSc2nc(-c3ccc4c(c3)OCO4)cc(C(F)(F)F)n2)cc1` the value was inactive: 63%; for `C=CCNC(=O)Nc1c[nH]c2ccccc2c1=O`, inactive: 106%. On to `COc1ccc(-n2c3c(cc(-c4nc(-c5ccc(Cl)cc5)cs4)c2=O)C(=O)CC(C)(C)C3)cc1Cl`, for which the survival is inactive: 79%. As to `CCOC(=O)CSc1nc2c(sc3ccccc32)c(=O)n1Cc1ccc(OC)cc1`, the survival is inactive: 101%. `Cc1cccc(NC(=O)c2sc(-n3nc(C)c(CCC(C)C)c3C)nc2C)c1`: the survival is inactive: 53%. For `Nc1c(C(=O)c2ccccc2)sc(Nc2ccc(Cl)c(Cl)c2)c1C(=O)Nc1ccccc1`, the survival is inactive: 94%. For `Cc1cc(=O)[nH]c(Nc2nc3ccccc3[nH]2)n1`, the survival was inactive: 71%. `N#Cc1ccccc1OCC(=O)N1CCN(c2ccccc2F)CC1`: the survival is inactive: 117%. For the molecule `Cc1c(C(=O)N(C)C)sc2c1c(=O)n(-c1ccccc1C(F)(F)F)c(=O)n2Cc1cccc(F)c1`, the survival was inactive: 78%.

As to `COc1ccc(C(=O)Nc2nc3c(s2)Cc2cc(OC)ccc2-3)cc1`, the survival was inactive: 55%. As to `COc1ccc(NC(=O)CSc2oc(-c3ccco3)nc2S(=O)(=O)c2ccccc2)c(OC)c1`, the survival was inactive: 115%. On to `CC(C)C(c1nnnn1C1CCCC1)N1CCOCC1` (stereo unspecified), for which the survival is inactive: 91%. For the molecule `Cc1ccccc1NCc1nc2ccccc2n1CCOc1ccccc1`, the survival was active: 0%. On to `O=S(=O)(NCCN1CCOCC1)c1cccc(C(F)(F)F)c1`, for which the survival is inactive: 104%. As for `COC(=O)Nc1ccc2c(c1)N(C(=O)CCN1CCOCC1)c1ccccc1S2`, the survival is inactive: 73%.

With `CN(C(=O)Cn1nnc(-c2ccc(S(C)(=O)=O)cc2)n1)c1ccccc1`, the survival is inactive: 73%.

In the case of `CCC(Sc1nnc2c3ccccc3n(C)c2n1)C(=O)Nc1nnc(C(C)C)s1` (stereo unspecified), the survival was inactive: 48%.

For the molecule `CCOc1ccc(NC(=O)CSc2nc(=O)[nH]c3c2CCC3)cc1`, the survival is inactive: 71%. With `CN1C(=O)/C(=C2/Sc3ccccc3N2C)SC1=NC1CCCCC1`, the survival is inactive: 84%. Regarding `O=C(CN1CCC(n2nnc3cc(F)ccc32)CC1)NCCc1ccccc1`, the survival is inactive: 95%. `O=C(Oc1ccccc1-c1nc(-c2ccccc2)no1)c1ccccc1`: the survival is inactive: 85%. For `CCOC(=O)C1=C(C)OC(N)=C(C(=O)OCC)C1c1ccncc1` (stereo unspecified) the value was inactive: 78%; for `CCc1ccc(NC(=O)CSc2nc3c([nH]c4ccccc43)c(=O)n2-c2cccc(OC)c2)cc1`, inactive: 102%.

Take `CCCCCn1c(=O)c2c(nc3n2CCN3c2ccc(Br)cc2)n(C)c1=O`: the survival is inactive: 80%. The same measure for `COc1cc(C)ccc1OCCSc1nc2ccc(NC(C)=O)cc2s1`: inactive: 65%; for `COc1ccc(CNC(=O)c2cn(-c3cccc(OC)c3)c(=O)c3ccccc23)cc1`: inactive: 67%; for `Cc1ccc(C(=O)NC2(C(F)(F)F)N=C(c3ccccc3)N(C3CCCCC3)C2=O)cc1` (stereo unspecified): inactive: 62%.

Take `CCOC(=O)c1c(C)c(-c2ccccc2)n(CC(=O)Nc2cccc(C)c2C)c1C`: the survival is inactive: 87%. In the case of `COc1ccc(C(=O)NCC(c2ccc3c(c2)OCO3)N2CCOCC2)cc1OC` (stereo unspecified), the survival is inactive: 70%. With `CC(=O)Nc1ccc(Nc2ncnc3sc4c(c23)CCCC4)cc1`, the survival was inactive: 76%.

In the case of `CCc1cc2c(cc3c(=O)n(CC(=O)NCCOC)nc(CC)n32)s1`, the survival was inactive: 75%. As for `Cc1ccc2nc(N(Cc3cccnc3)C(=O)CCOc3ccccc3)sc2c1`, the survival was inactive: 90%.

Take `Cc1cccc(C(=O)N2CCc3cc(CNS(=O)(=O)c4cccs4)ccc32)c1`: the survival was inactive: 74%. Regarding `Cc1ccc(C)c(CNC(=O)c2sc3ncnc(N(C)C4CCCCC4)c3c2C)c1`, the survival was inactive: 115%.

For `CCC1CN(C(=O)N2CCC(C(=O)N3CCN(c4cc(C)ccc4C)CC3)CC2)c2ccccc2O1` (stereo unspecified), the survival is active: 36%.
